# The other results are listed elsewhere or left out. The energies were worked out here from pooled read counts, against the library average; single values are noisy.
# Target: T1, Pho4 (S. cerevisiae) (UniProt P07270)
# T1 sequence: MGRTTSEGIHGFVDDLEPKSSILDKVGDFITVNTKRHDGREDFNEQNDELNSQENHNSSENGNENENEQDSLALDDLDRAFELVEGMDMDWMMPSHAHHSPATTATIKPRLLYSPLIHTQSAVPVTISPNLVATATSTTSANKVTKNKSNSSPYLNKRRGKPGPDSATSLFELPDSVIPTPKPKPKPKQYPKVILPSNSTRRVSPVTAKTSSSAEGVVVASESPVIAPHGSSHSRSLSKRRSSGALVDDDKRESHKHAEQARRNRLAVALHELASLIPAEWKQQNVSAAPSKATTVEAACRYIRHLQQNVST
# Assay: relative binding free energy (BET-seq); higher = weaker binding
# Details: reference: library average
row,Sequence,relative binding free energy [kcal/mol]
1,TGTTGCACGTGATCAT,-0.05
2,CGATGCACGTGGTTTT,-0.09
3,GTGGGCACGTGGCGCA,-0.1
4,TTTGCCACGTGTTGGC,-0.04
5,TCTCGCACGTGTGTTT,-0.02
6,GTGTGCACGTGGGGGC,-0.11
7,TCATGCACGTGTGTAT,-0.02
8,TAGCGCACGTGGTTCG,-0.16
9,TCTCTCACGTGTTGTT,0.27
10,CAGTACACGTGGTTTG,-0.01
11,GCGGACACGTGTTGTT,0.02
12,CGATGCACGTGGGTTT,-0.09
13,CTAAGCACGTGAGGGG,-0.13
14,TGTTACACGTGGTCTG,0
15,GATGTCACGTGATTGT,0.27
16,TGTGTCACGTGACGCT,0.08
17,GCGGTCACGTGGGGCG,-0.01
18,AATTTCACGTGATAAT,0.33
19,TATACCACGTGGGGTG,-0.37
20,TTGTTCACGTGATGGT,0.39
21,TGGGTCACGTGCTCAG,-0.03
22,TGGAGCACGTGTAATT,0.08
23,TGTAACACGTGTAGCG,-0.09
24,GAAGACACGTGGTATT,0.11
25,TGTGTCACGTGTGGAA,0.1

row,Sequence,relative binding free energy [kcal/mol]
1,ACCGGCACGTGTAGGT,-0.01
2,CAGGTCACGTGGACGT,0.2
3,TGCGTCACGTGAGGCT,0.14
4,AAATTCACGTGGTGGG,0.2
5,GAAAACACGTGGGGGA,-0.1
6,CGTCTCACGTGGTTGT,0.34
7,GGGTACACGTGAATTA,0.25
8,TTTGACACGTGTATTT,0.13
9,TACATCACGTGTAGGT,0.09
10,AGGTGCACGTGGCGCA,-0.19
11,TTGTACACGTGAGTAC,0.25
12,TGTGGCACGTGTGTTG,0
13,AGGCGCACGTGCTTGG,-0.31
14,GGAGTCACGTGACGGG,0.28
15,CTGATCACGTGTGGGA,0.27
16,CAGGACACGTGGGGGC,-0.03
17,CAGTTCACGTGGGTAT,0.13
18,CTTGTCACGTGAAATG,0.21
19,AGCATCACGTGTGATT,0.17
20,GGTGCCACGTGGTGGG,-0.15
21,TTGGGCACGTGTGCTT,-0.05
22,AGTAGCACGTGCGGGC,-0.21
23,TGGTACACGTGAGGAG,0.28
24,GGGTTCACGTGTACTG,0.31
25,AGATTCACGTGGAGGA,0.32

row,Sequence,relative binding free energy [kcal/mol]
1,AGGATCACGTGATGTT,0.18
2,GGGCTCACGTGTGGCT,0.15
3,ATTTGCACGTGCATTT,0.03
4,GAAGTCACGTGTGTGG,0.18
5,TCGTGCACGTGATGTA,0.09
6,TTGGTCACGTGCTTCG,0.08
7,ATAATCACGTGGTGTC,0.07
8,CGTGGCACGTGTGGGA,0.01
9,TAATTCACGTGGCGGT,0.16
10,CGTTGCACGTGTTAGC,0.11
11,TAGTGCACGTGTCAGT,-0.01
12,CTGTGCACGTGAAGTG,0.1
13,GTTGCCACGTGGGGGC,-0.15
14,TCTGTCACGTGTTTTG,0.15
15,GTGTGCACGTGTGGAG,0.09
16,TTGTGCACGTGTTACT,-0.07
17,ATAGGCACGTGTGTAA,-0.03
18,ATTGTCACGTGGGGCG,-0.09
19,ATTTGCACGTGATTAT,0.11
20,CTTGACACGTGTGCGT,0.03
21,GGGATCACGTGAAAGG,0.33
22,CAGGGCACGTGGGTAG,-0.26
23,TTTAACACGTGGTGGT,-0.03
24,TTCTACACGTGGGATG,-0.06
25,TGTGACACGTGTAGAG,0.13

row,Sequence,relative binding free energy [kcal/mol]
1,GGTGTCACGTGGGATA,0.02
2,ATAAACACGTGTAGTA,0.06
3,ATTATCACGTGCTGGT,-0.03
4,CTTGACACGTGGCGGT,-0.07
5,TATGGCACGTGGGAAT,-0.02
6,GTGAACACGTGGGGGA,-0.12
7,AATATCACGTGGTGAA,0.07
8,GGAATCACGTGTATTG,0.24
9,ATTGGCACGTGAGTAT,0.11
10,AGGGACACGTGCGGGG,0.03
11,GATGGCACGTGCGAGT,0
12,TTCGGCACGTGGGTGC,-0.13
13,GGGGTCACGTGGATTT,0.31
14,TGCTGCACGTGAGTTA,0.18
15,GGCCGCACGTGAGTGG,-0.01
16,AATGACACGTGGTAGA,0.05
17,CTGGTCACGTGCTAGG,0.11
18,TACTGCACGTGTATGT,-0.02
19,TCATTCACGTGTGCTG,0.31
20,ACGATCACGTGGTTTG,0.04
21,CGTATCACGTGGGAAG,0
22,CGTGTCACGTGTCAGT,0.05
23,TTAATCACGTGTGGTG,0.13
24,CGATTCACGTGAGGGT,0.34
25,TGGGACACGTGGAGAT,-0.08

row,Sequence,relative binding free energy [kcal/mol]
1,GGGTTCACGTGAGTTC,0.42
2,AATGACACGTGTTTGA,0.06
3,GCAGTCACGTGTGTTG,0.22
4,CGGAGCACGTGCTGTT,0.05
5,CGGCGCACGTGAGTGG,0.02
6,CAAGACACGTGGGGTA,-0.07
7,TGTGTCACGTGGGAGG,0.01
8,GTTTGCACGTGCTTCT,0.13
9,CTTTGCACGTGGTTGT,-0.06
10,CTATTCACGTGAAGTG,0.26
11,GTTGGCACGTGTACTG,-0.04
12,GGGGTCACGTGGAGTA,0.15
13,TATTTCACGTGAGATA,0.39
14,GGTTGCACGTGCGGTG,0.08
15,TATAGCACGTGGTCAG,-0.17
16,AGAATCACGTGGGGCG,0.1
17,ACGATCACGTGTGTTT,0.17
18,GCGTTCACGTGATAGT,0.3
19,AGTTACACGTGTGGCA,0.11
20,GATTGCACGTGTACTG,0.18
21,TTAACCACGTGTAGTG,-0.05
22,GTATGCACGTGACTGG,0.05
23,TGGTGCACGTGAGGCG,0.27
24,AGGTGCACGTGAGGTA,0.11
25,TGGTACACGTGGAGCT,0.05

row,Sequence,relative binding free energy [kcal/mol]
1,TTGCACACGTGTCGTT,0.03
2,AGGGGCACGTGGATCG,-0.15
3,GATGTCACGTGCCGGG,0.13
4,TTTACCACGTGGTTGT,-0.09
5,ATATTCACGTGTGTAG,0.08
6,TATTACACGTGGTCTT,-0.01
7,TGGTACACGTGCGGAG,-0.02
8,ACTTTCACGTGTATTG,0.11
9,AGATTCACGTGGGTAG,0.05
10,GTGCGCACGTGAGCGT,0.03
11,GTTAGCACGTGCGTTT,-0.08
12,AGTTCCACGTGGGTTG,0
13,GGGTGCACGTGCATAA,0.04
14,GTTTTCACGTGGTCCT,0.36
15,GAAGTCACGTGTTGTA,0.25
16,ATACGCACGTGAGGAG,0.2
17,GTGTGCACGTGTGGTC,0.06
18,CTTGGCACGTGCATGG,-0.16
19,TTTGGCACGTGCAGGT,-0.1
20,AGAGTCACGTGTTTTA,0.11
21,TATAACACGTGTTATT,-0.05

# Reference: the BET-seq Pho4 binding data (Le et al. 2018)
